Assay results: PMC4336329 (PLoS ONE, 2015)
Among all 310,000 compounds or so, about 2,200 (0.71%) showed an effect of 50% or more. The effect is printed as a negative number. The list shows a part of the results.

What follows are compounds tested against human ether-à-go-go-related gene (hERG) potassium channel (human, UniProt Q12809) (assay: primary screen, population patch clamp on CHO cells stably expressing hERG).
Chain of human ether-à-go-go-related gene (hERG) potassium channel (Q12809 whole entry, looked up): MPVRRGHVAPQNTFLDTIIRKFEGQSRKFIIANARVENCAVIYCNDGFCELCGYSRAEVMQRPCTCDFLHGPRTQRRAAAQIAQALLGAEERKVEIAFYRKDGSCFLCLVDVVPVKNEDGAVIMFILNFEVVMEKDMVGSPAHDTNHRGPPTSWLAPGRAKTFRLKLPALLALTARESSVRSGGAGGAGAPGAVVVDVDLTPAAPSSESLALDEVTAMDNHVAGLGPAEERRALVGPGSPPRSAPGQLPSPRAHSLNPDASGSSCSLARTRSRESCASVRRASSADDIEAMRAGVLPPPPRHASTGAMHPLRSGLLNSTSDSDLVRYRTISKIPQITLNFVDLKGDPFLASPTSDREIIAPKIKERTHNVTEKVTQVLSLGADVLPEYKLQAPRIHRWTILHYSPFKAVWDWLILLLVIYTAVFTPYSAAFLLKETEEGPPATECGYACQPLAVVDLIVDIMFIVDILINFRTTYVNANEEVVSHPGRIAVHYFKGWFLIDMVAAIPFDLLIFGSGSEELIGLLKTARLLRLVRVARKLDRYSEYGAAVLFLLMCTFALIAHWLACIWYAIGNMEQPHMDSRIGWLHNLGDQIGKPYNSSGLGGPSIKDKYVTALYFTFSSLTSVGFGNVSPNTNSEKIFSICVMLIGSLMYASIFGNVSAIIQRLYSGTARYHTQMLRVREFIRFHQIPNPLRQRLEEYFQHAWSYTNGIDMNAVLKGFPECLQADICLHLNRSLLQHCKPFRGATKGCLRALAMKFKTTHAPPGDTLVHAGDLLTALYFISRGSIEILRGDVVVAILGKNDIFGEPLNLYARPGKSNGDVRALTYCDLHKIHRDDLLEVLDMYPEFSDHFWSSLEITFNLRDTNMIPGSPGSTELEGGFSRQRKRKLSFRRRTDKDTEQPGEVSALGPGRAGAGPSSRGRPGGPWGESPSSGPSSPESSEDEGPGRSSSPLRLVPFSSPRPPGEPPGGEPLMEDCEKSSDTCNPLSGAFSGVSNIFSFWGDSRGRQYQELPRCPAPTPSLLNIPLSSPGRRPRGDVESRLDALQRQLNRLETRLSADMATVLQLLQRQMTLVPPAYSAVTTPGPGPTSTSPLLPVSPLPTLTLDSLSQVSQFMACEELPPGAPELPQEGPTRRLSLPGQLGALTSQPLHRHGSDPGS

Row | Compound | hERG current change (%, negative = inhibition) at 1uM [%]
1 | N#Cc1ccc(C(c2nnnn2C2CCCC2)N2CCC(Cc3ccccc3)CC2)cc1 (centres unmarked) | 15.1
2 | CN(C)S(=O)(=O)c1cccc(NC(=O)c2c[nH]c3ccccc23)c1 | 27
3 | N#CCCN(C(=O)COC(=O)C1CCN(c2ccc(C(F)(F)F)cn2)CC1)c1ccc(F)cc1 | -8.24
4 | CC(=O)c1c(C)[nH]c(C(=O)Nc2cccc(C(F)(F)F)c2)c1C | 15.6
5 | CC(C)CCNC(=O)c1cccnc1Sc1ccccc1 | 10.6
6 | COc1ccccc1NC(=O)Cn1nnc(-c2ccccc2NC(=O)c2cccs2)n1 | 1.21
7 | Cc1nc2cc(C(F)(F)F)ccc2n1CCNc1nc(-c2ccc(F)cc2)cs1 | 8.78
8 | COc1ccc(-c2[nH]ncc2/C=N\NS(=O)(=O)c2ccccc2)cc1OC | 11.4
9 | COc1ccccc1NC(=O)c1ccc(NS(=O)(=O)c2ccc(F)c(Cl)c2)cc1 | 13.8
10 | O=C(Nc1cccc(F)c1)NC1(C(=O)NCC2CCCO2)CCCCC1 (centres unmarked) | 13.3
11 | O=C(Nc1cc(Cl)ccc1O)c1cc2n(n1)C(C(F)(F)F)CC(c1ccc3c(c1)OCO3)N2 (centres unmarked) | -5.28
12 | O=C(CCC(=O)c1ccc(Oc2ccccc2)cc1)Nc1ccc(Cl)cc1Cl | 11.4
13 | CC1(c2ccc(Cl)cc2)NC(=O)N(CC(=O)NC(=O)NCc2ccco2)C1=O (centres unmarked) | 12.3
14 | S=C(CN1CCCC1=S)NCCc1ccccc1 | 15.3
15 | NC(=O)CSc1nnc(-c2cccs2)n1Cc1ccco1 | 7.15
16 | O=C(CC(NCCc1ccccc1)C(=O)O)Nc1ccc(O)cc1 (centres unmarked) | 7.85
17 | CC(C)C[C@H](NC(=O)c1[nH]cnc1C(=O)Nc1ccc(CNC(=O)OC(C)(C)C)cc1)C(=O)OC(C)(C)C | 16.2
18 | COc1cc2c(C#N)c(N3CCOCC3)nc(N)c2c(N)n1 | 3.76
19 | COCC(CN1CCN(C2=NS(=O)(=O)c3ccccc32)CC1)OC(=O)c1ccccc1 (centres unmarked) | 2.63
20 | Cc1c(C(=O)N2CCCC2)oc2ccc(Br)cc12 | 18
21 | CC1CCCCC1NC(=O)CSc1nnc(COc2ccccc2Cl)o1 (centres unmarked) | 9.89
22 | C/C(CC(=O)Nc1ccccc1[N+](=O)[O-])=N\NC(=O)COc1ccccc1C | 9.65

Row | Compound | hERG current change (%, negative = inhibition) at 1uM [%]
23 | CCn1c(=N)c(S(=O)(=O)c2ccc(F)cc2)cc2c(=O)n3ccccc3nc21 | 2.31
24 | CC(C)(C)c1ccc(C(=O)C2CCCN(C3CCC3)C2)cc1 (centres unmarked) | 10.7
25 | CN(C(=O)CSc1nnc(CNC(=O)c2ccccc2)o1)c1ccccc1 | 1.84
26 | COc1cc(/C=N/Nc2snc(SC)c2C#N)cc(OC)c1OC | 9.86
27 | COc1ccc(NC(=O)CN2CCN(CC(=O)Nc3ccc(OC)c(OC)c3)CC2)cc1 | -66.1
28 | O=C(c1ccc(C#CC2(O)CCCCC2)cc1)N1CCOCC1 | 12.6
29 | CCCC(C)c1nnc(NC(=O)CCS(=O)(=O)Cc2ccccc2)s1 (centres unmarked) | 5.62
30 | CCOC(=O)Cc1csc(NC(=O)c2cc(OC)cc(OC)c2)n1 | 5.15
31 | CCOc1ccc(S(=O)(=O)NCc2cccnc2)cc1NC(=O)c1ccccc1F | 12.7
32 | CN(C)S(=O)(=O)c1ccc(C(=O)OCC(=O)Nc2sc3c(c2C#N)CCCCC3)cc1 | 10.6
33 | COc1ccc(OC)c(Cc2nnc(CCC(=O)N3CCC(N4CCCCC4)CC3)o2)c1 | 8.67
34 | NC(=O)c1cc(C(=O)c2ccc(Cl)cc2Cl)c[nH]1 | 14.3
35 | CNc1cc([N+](=O)[O-])ccc1N/C=C/C(=O)c1cccs1 | 7.39
36 | O=C(Nc1nnc(CSCc2ccccc2F)s1)c1cccc([N+](=O)[O-])c1 | 9.52
37 | O=C(NC(=S)Nc1ccc(N2CCCC2)cc1)c1ccccc1[N+](=O)[O-] | 3.53
38 | CC(C)c1nnc(NC(=O)CN(C)S(=O)(=O)c2ccc3c(c2)OCCO3)s1 | 13.5
39 | O=C1CC(c2ccsc2)c2cc3c(cc2N1)OCCO3 (centres unmarked) | 4.2
40 | Cn1c(=O)c([N+](=O)[O-])c(-n2ccnc2)c2ccccc21 | -2.1
41 | c1ccc(CCN(Cc2ccccc2)Cc2nc(C3CC3)no2)cc1 | 1.72
42 | COc1ccc(CN(C)CCc2ccccn2)c(OC)c1OC.O=C(O)C(=O)O | -15.2
43 | COC(=O)c1cnn(-c2ccccc2)c1-n1cccc1C=O | 8.55
44 | CCOc1ccc(CC(=O)N2CCC3(CC2)NCCc2[nH]cnc23)cc1 | 17.2

Row | Compound | hERG current change (%, negative = inhibition) at 1uM [%]
45 | CCCC[C@H](CC(=O)c1ccccc1)[C@@H](OC(C)=O)C(=O)Oc1c(C(C)C)cccc1C(C)C | 2.89
46 | COC(=O)CCC(=O)OC1(C)C(=O)C2=CN(Cc3ccc(OC)cc3)C(c3ccc(OC)cc3)=CC2=C(Br)C1=O (centres unmarked) | -0.172
47 | Oc1ccccc1Oc1c(F)c(F)nc(N2CCCC2)c1F | 5.33
48 | O=C(CCc1ccccc1)NNc1ccc(F)cc1 | 15.1
49 | COc1ccc(CCNC(=O)c2oc3ccc(S(=O)(=O)N4CCOCC4)cc3c2C)cc1OC | 5.88
50 | COc1cc(C2N(c3ccccc3)CCN2c2ccccc2)cc(OC)c1OC | 16.7
51 | N#Cc1c2n(cnc1=O)CCCCC2 | 16.9
52 | COc1ccc(NC(=O)CCC(=O)OCC(=O)c2ccc(Oc3ccc([N+](=O)[O-])cc3)cc2)cc1 | 13.7
53 | CC(C)Sc1nnc([C@H](C)NC(=O)OC(C)(C)C)o1 | -6.28
54 | CCOC(=O)C1CCN(C(=O)CNC(=O)c2nn(-c3ccc(OC)c(Cl)c3)c(=O)c3ccccc23)CC1 | -4.01
55 | O=C(Nc1cc(F)ccc1F)C1CCN(S(=O)(=O)c2cccc3nonc23)CC1 | 12.6
56 | COC(=O)/C=C/c1oc2ccccc2c1C | 7.18
57 | Clc1ccc(SCc2cn3cccnc3n2)cc1 | -3.32
58 | CC(=O)Nc1nonc1NC(=O)CSC1=NCCS1 | 14.7
59 | COC(=O)c1nc2nc(C)cc(=O)n2[nH]1 | 18.9
60 | COc1ccc(CC(=O)NCCc2cnc[nH]2)cc1 | 14.1
61 | COC(=O)COc1ccc(C(C2C(=O)CC(C)(C)CC2=O)C2C(=O)CC(C)(C)CC2=O)cc1 | 10.9
62 | Cc1c(C#N)c2ccccc2n1CC(=O)NCC1CCCO1 (centres unmarked) | 14.8
63 | Br.COc1ccc(-c2cn3c(n2)CCC3)cc1 | 3.61
64 | O=C(NCC(=O)N1CCN(c2ccccc2O)CC1)c1cccs1 | 9.72
65 | CSc1nnc2c(n1)OC(c1ccccn1)N(C(C)=O)c1ccccc1-2 (centres unmarked) | 12.6
66 | Cc1cccc(N2CCN(C(=O)c3ccc(NC(=O)C4CCCO4)cc3)CC2C)c1 (centres unmarked) | 11.1

Row | Compound | hERG current change (%, negative = inhibition) at 1uM [%]
67 | COc1ccc([N+](=O)[O-])cc1NS(=O)(=O)c1ccc(C)cc1 | 3.48
68 | Cc1ccc(C)c(N2CCN(S(=O)(=O)c3ccc4[nH]c(=O)c(=O)[nH]c4c3)CC2)c1 | 8.34
69 | Cc1ccc(OCC(=O)O)c(-n2nc3ccccc3n2)c1 | 10.3
70 | Nc1nonc1OCCCCOc1nonc1N | 11.7
71 | Cc1ccc(S(=O)(=O)CC(=O)N(CCCN(C)C)c2nc3ccc(C)cc3s2)cc1.Cl | 7.03
72 | O=C(CN(C(=O)C1CSC(=O)C1)c1ccc(F)cc1)NCc1ccc2c(c1)OCO2 (centres unmarked) | 16.9
73 | Nc1nnc(SCC(=O)OCC(=O)c2ccccc2Br)s1 | 2.47
74 | CN1N=C(C(=O)NC2CCCc3c2cnn3-c2ccc(F)cc2F)CCC1=O (centres unmarked) | 6.91
75 | Cc1ccc(CNC(=O)Cn2c([N+](=O)[O-])cnc2C)cc1 | 8.72
76 | CCOc1ccccc1NC(=O)Cn1ncc2ccc([N+](=O)[O-])cc21 | 0.811
77 | CCc1ccc(-c2cc(C)no2)cc1S(=O)(=O)N1CCN(c2cccc(C)c2C)CC1 | 11.8
78 | Cc1ccc(C)c(N2CCN(CC3CC=CCC3)CC2)c1 (centres unmarked) | 12.5
79 | COc1ccccc1CN1C[C@@H]2C[C@@H](c3ccccc3C)N3CCC[C@@]23C1=O | 16.2
80 | O=C(CN1C(=O)NC2(CCCCCC2)C1=O)NC1CCCCCCC1 | 14.5
81 | CC[C@H](C)Cc1cn([C@@H](CCCCNC(=O)OC(C)(C)C)C(=O)NCCCCCCCCCCC(=O)N2CCN(C(=O)OC(C)(C)C)CC2)nn1 | -3.45
82 | O=S1(=O)N=CN(Cc2cccc(F)c2)c2ccccc21 | 4.93
83 | O=C1N=C(N2CCC(Cc3ccccc3)CC2)S/C1=C/c1cn[nH]c1-c1ccccc1 | 4.02
84 | CCCCCc1cc(=O)[nH]c(=S)[nH]1 | 14.8
85 | COC(=O)c1ccc(Cl)cc1NC(=O)/C=C/c1ccc(C)o1 | 5.25
86 | COC(=O)c1[nH]c2ccc(C)cc2c1NC(=O)CN1CCN(C(=O)c2ccccc2)CC1.Cl | -1.98
